Laboratory results as given in the RNAGym collection of RNA variant scans (doi:10.1073/pnas.2313332121).
Variants at the background level are over-represented here.

B1: TPR 5TU (parent)
chain: GGAUCUUCUCGAUCUAACAAAAAAGACAAAUCUGCCACAAAGCUUGAGAGCAUCUUCGGAUGCAGAGGCGGCAGCCUUCGGUGGCGCGAUAGCGCCAACGUUCUCAACUAUGACACGCAAAACGCGUGCUCCGUUGAAUGGAGUUUAUCAUG

Variants of: B1
Test: polymerase ribozyme fitness, log enrichment relative to wild type (log ratio); higher = more active; in vitro selection for triplet polymerase activity
Procedure, shortened: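 Genotype fitness is the logarithm of its enrichment divided by wild-type enrichment, using inverse-variance-weighted averages of replicates. That logarithm is base 2. Enrichment was measured by Illumina sequencing of input and output libraries from one triplicate in vitro selection round, with frozen incubation at −7 °C, on PCR-built, transcribed mutant libraries of each subunit of a heterodimeric triplet polymerase ribozyme, retaining genotypes with ≥10 input reads and ≥1 read per output.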

Variant | polymerase ribozyme fitness (log ratio)
C51U C79U | -3.01
C51A A91G | -3.53
A52G G58A A60C A66U C79U U82A A91C G100C C105G G143U | ≤ -4.2
A52C C57G G94A G100U U148A | ≤ -4.2
A52G G74C G88C A115U C129G C131U | ≤ -4.2
C51U C76G C85A C95A C132U U144C U151A | ≤ -4.2
C51U C108U C131G A138G U139C | ≤ -4.2
A52G C85G A107U U127A G143A | ≤ -4.2
A52C U53A U148G | ≤ -4.2
C51U C85A | -2.63
C51U C85U | -0.8
C51A G92C G100U C103U G117A C131G U146C | ≤ -4.2
C51U U53A C96G C105G G133U | ≤ -4.2
A52C C54U G86A C131G A142G | ≤ -4.2
A52C C85U G136A A142G G143C | ≤ -4.2
C51G C54U A98G C132A U135G | ≤ -4.2
A52G A106G G143A | -0.542
C51A G80C G84C A107U | ≤ -4.2
C51G G58C G81A G136U | ≤ -4.2
A52C G94C U139C G140A U148A A150U | ≤ -4.2
C51A C75U C95U A106C G128U | ≤ -4.2

Variant | polymerase ribozyme fitness (log ratio)
A52G G80A A91C C103G C125A G141U | ≤ -4.2
C51G G92A | ≤ -4.2
A52G G65A G71U | ≤ -4.2
C51G C95U | -2.73
C51A A137C | ≤ -4.2
A52C G83U C85A C95U C105A | ≤ -4.2
C51A C85U A89G U146A | -3.11
C51U C75U C96U G143C | -4.11
A52G C96G G112C | ≤ -4.2
C51U A64U C95U A119G G124A C149U | ≤ -4.2
C51A C54A | ≤ -4.2
C51G U56A G117U | -2.86
A52C C54U U55A C96G U109A C116A | ≤ -4.2
C51G U90G C95A A97U C99U | ≤ -4.2
A52G C63U C93U U145G C149U | -4.11
C51U G92C C105A C116A | ≤ -4.2
C51G G59A G133U G141A | ≤ -4.2
C51U G74A G88C G143A | ≤ -4.2
A52C G58C C116A C123G C125U | ≤ -4.2
A52G A106C | -0.69
C51U C95U U104G U144A | -2.33

Variant | polymerase ribozyme fitness (log ratio)
C51U G59A C85G A137U | ≤ -4.2
A52G A66U A91U | ≤ -4.2
C51A C99G G141C | ≤ -4.2
A52C U55C G83A U151A G152A | ≤ -4.2
C51A G83U C103A | ≤ -4.2
C51G C85A G92U C95A | ≤ -4.2
A52C U61A G68A C85U | ≤ -4.2
C51G C95U A106U | ≤ -4.2
C51U U55A G86A C93A G124U G136C U148G | ≤ -4.2
A52G C72U U77A C108G | ≤ -4.2
C51U G100A | ≤ -4.2
C51A C69A A73G C93U C99A | ≤ -4.2
A52C C95U C96U C114U G133U | ≤ -4.2
C51U C54G G68U U78A U82G C103A G140C | ≤ -4.2
A52G A142U | -0.597
A52G C93U G94C A97C | -3.73
C51U G58U U82G C96U | -0.59
A52C G58U G59A C85A | -2.15
C51U U55A A64C G88A A106U U139G G143C | ≤ -4.2
C51A C85A G92U C95G U145A | ≤ -4.2
A52C U77C G81A G88C C93U C131U | ≤ -4.2

Variant | polymerase ribozyme fitness (log ratio)
C51U A89G G141U | -0.598
C51G G94U | ≤ -4.2
A52C U61A G65A C95A G141U | -2.36
C51U C95U C105G A107U C118A | ≤ -4.2
A52C G152U | -3.45
C51G C54U C75G G94A A142U A150G | ≤ -4.2
C51G G92C G94U A115C U134C | ≤ -4.2
C51U C87U A121U | -0.813
C51U A64C G71A C85A C108G | ≤ -4.2
A52C G80C G83U | ≤ -4.2
C51G G70A G81A G86U G128A C129A | ≤ -4.2
A52C U56G C63U G68A C93U C103G A150C | ≤ -4.2
A52C G84A G86U C95U C114G | ≤ -4.2
A52C A106G U139C | ≤ -4.2
C51U U56A G68A G94A C96A U101C | ≤ -4.2
C51U C131G | -3.49
C51U A66U C87A C118G | ≤ -4.2
A52C U53A C57A G58U G83U C118U U151G | ≤ -4.2
A52C G68C | ≤ -4.2
A52G A89U G92A A115U A147C | ≤ -4.2
C51G C75U C79A G80C C87A A98U C103G U145G | ≤ -4.2
